About 230 (0.21%) of roughly 110,000 compounds showed an effect of 50% or more. Some of the results follow.
target: DPAP1 (Plasmodium falciparum, UniProt Q8IIJ9); test: primary screen, percent inhibition; read by cleavage of a fluorogenic dipeptide substrate; higher = more effect of the substance; design: species or system P. falciparum D10 trophozoite lysates; single well
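Further: 30 min substrate incubation versus DMSO and 10 µM JCP410 controls.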

Sequence of DPAP1 (Q8IIJ9 whole entry, looked up): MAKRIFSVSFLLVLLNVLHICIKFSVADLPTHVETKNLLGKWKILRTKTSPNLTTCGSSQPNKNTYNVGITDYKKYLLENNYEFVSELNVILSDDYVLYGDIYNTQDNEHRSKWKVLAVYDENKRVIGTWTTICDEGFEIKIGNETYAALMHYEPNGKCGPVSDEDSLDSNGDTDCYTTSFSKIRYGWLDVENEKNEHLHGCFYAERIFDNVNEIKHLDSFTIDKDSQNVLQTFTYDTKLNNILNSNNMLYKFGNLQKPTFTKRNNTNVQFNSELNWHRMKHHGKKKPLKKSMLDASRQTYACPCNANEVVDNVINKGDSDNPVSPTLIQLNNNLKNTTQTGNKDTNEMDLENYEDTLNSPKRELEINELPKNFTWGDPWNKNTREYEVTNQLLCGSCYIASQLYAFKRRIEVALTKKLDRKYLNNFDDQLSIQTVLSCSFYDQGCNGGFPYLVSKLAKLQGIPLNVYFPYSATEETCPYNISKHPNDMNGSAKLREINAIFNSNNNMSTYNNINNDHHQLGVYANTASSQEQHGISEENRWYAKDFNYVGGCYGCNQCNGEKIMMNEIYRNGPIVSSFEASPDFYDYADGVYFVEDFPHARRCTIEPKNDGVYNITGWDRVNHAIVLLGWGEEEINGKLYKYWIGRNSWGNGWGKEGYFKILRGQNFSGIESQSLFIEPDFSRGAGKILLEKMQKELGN

Row | SMILES | % Inhibition @ 10 uM [%]
1 | O=C(Nc1cccc(C(F)(F)F)c1)/C(=C/c1ccco1)NC(=O)c1cccs1 | -0.958
2 | CCOc1ccc(CCNC(=O)c2oc3ccc4c(c3c2C)C(O)CC(C)(C)O4)cc1OCC (centres unmarked) | 2.32
3 | O=C(NCCCN1CCC(Cc2ccccc2)CC1)c1nnc(Cc2ccc3c(c2)OCO3)o1 | 3.99
4 | O=c1oc(-c2ccccc2Cl)nc2c1cnn2-c1ccccc1 | 5.04
5 | OC(c1ccccc1)c1nc2ccccc2n1-c1ccccc1 (centres unmarked) | -1.15
6 | Cc1ccc(C)c(CSc2nncn3c2cc2occc23)c1 | 0.616
7 | CC(C(=O)Nc1c2c(cc3c1CCC3)CCC2)N1CCCC1 (centres unmarked) | -1.61
8 | Cc1onc(-c2c(Cl)cccc2Cl)c1C(=O)Nc1nccs1 | -3.04
9 | Cc1ccnc(NC(=O)c2cnn(-c3ccccc3)c2-n2cccc2)c1 | -6.3
10 | Cn1nc(C(=O)NCCN2CCC(Cc3ccccc3)CC2)c2c1-c1ccccc1OC2 | 8.81
11 | CCC(NC(=O)c1ccc(OC)c(OC)c1)c1ccccc1 (centres unmarked) | -2.19
12 | Cc1onc(-c2ccccc2)c1C(=O)Nc1ccccc1C(F)(F)F | -5.49
13 | COc1ccc(NC(=O)c2ccc(OC)c(OC)c2)cc1OC | -4.58
14 | Oc1ccccc1-c1nc2ccccc2[nH]1 | -0.771
15 | O=C1CC(c2cccs2)Sc2ccccc2N1 (centres unmarked) | 2.87
16 | Nc1cc(-c2ccc(Br)cc2)no1 | 0.66
17 | c1ccc2[nH]c(Sc3nc4ccccc4n4cnnc34)nc2c1 | 7.74
18 | CCN(CC)S(=O)(=O)N1CCC(C(=O)NCCc2ccccc2)CC1 | 1.16
19 | Cc1cccc(NC(=O)COc2cccc(C)c2)c1 | -1.97
20 | Cc1cc2c(c(=O)n1Cc1ccccn1)C(c1cccc(Cl)c1)C(C#N)=C(N)O2 (centres unmarked) | 0.627
21 | CC1=C(C(=O)Nc2ccc(C)cn2)C(c2cccc(Br)c2)C2=C(O)CCCC2=N1 (centres unmarked) | 1.02
22 | N#C/C(=C/Nc1ccccc1)c1nc(-c2ccc(Cl)cc2Cl)cs1 | 0.526
23 | Cc1ccc(-n2ncc(C(=O)N3CCCCC3C)c2NC(=O)c2ccco2)cc1C (centres unmarked) | -3.33
24 | N#Cc1c2c(c(Cl)n3c1nc1ccccc13)CCC2 | 5.24
25 | CCc1ccc(CN2CCN(C(=O)c3cc(OC)c(OC)c(OC)c3)CC2)cc1 | 11.6
26 | CCSc1nc(-c2ccccc2)ccc1C#N | 1.96

Row | SMILES | % Inhibition @ 10 uM [%]
27 | CC(CCc1ccccc1)NC(=O)CCn1c(=O)c2cccn2c2cccnc21 (centres unmarked) | 0.951
28 | COc1cc2c(cc1NC(=O)c1cnn(C)c1)oc1ccccc12 | -4.82
29 | COc1ccc(C(=O)NCCN2CCOCC2)c(OC)c1 | 13.6
30 | O=C1ON=C(c2ccccc2)/C1=C\c1ccccc1O | -2.14
31 | Cc1c2c(n3c(nc4ccccc43)c1C#N)N(Cc1cccnc1)CC2 | -1.11
32 | COc1cc(C)c(CN2CCC3(C=Cc4ccccc43)CC2)cc1C | 6.41
33 | N#CC1=C(N)OC2=C(C(=O)CCC2)C1c1ccc(-c2ccc(Cl)cc2Cl)s1 (centres unmarked) | 2.44
34 | CSc1nc2c(c(=O)n1C1CCCCC1)C1(CCCC1)Cc1ccccc1-2 | 1.27
35 | CN(CC(=O)Nc1ccc(C(F)(F)F)cc1)S(=O)(=O)c1cc(Cl)ccc1Cl | -0.992
36 | CCc1ccc(CNC(=O)CSCc2ccc(C)cc2)cc1 | 0.514
37 | N#CC1C(=O)Nc2sc(C(=O)c3ccc(Br)cc3)c(N)c2C12CCCCC2 (centres unmarked) | 0.385
38 | O=C(Cc1ccc(F)cc1)Nc1nc2ccccc2s1 | -0.872
39 | Nc1nonc1-c1noc(COc2c(F)c(F)cc(F)c2F)n1 | -7.23
40 | CC(C)(C)n1ncc2c(=O)n(Cc3cccc(C(F)(F)F)c3)cnc21 | -1.75
41 | Cc1cccc(CCNC(=O)c2cc3c(s2)-c2ccccc2S(=O)(=O)C3)c1 | 0.953
42 | CCc1ccc(C2=NNC(=O)CC2)cc1 | -2.4
43 | COc1ccc(/C=C(\C#N)c2nc(-c3cccs3)cs2)cc1OC | 4.35
44 | O=C(Cn1c2ccccc2c2cnnc(O)c21)NCc1cccnc1 | 1.38
45 | COc1ccc(OC)c(CCNC(=O)CSCc2cnn(-c3ccccc3)c2-n2cccc2)c1 | 3.24
46 | OCCN1CCN(c2c(O)nc3ccc(Cl)cc3c2-c2ccccc2)CC1 | -2.67
47 | COc1ccccc1OCC(=O)Nc1ccccc1 | 3.8
48 | Cc1[nH]c2ccccc2c1C(Nc1ccccc1F)c1cccnc1 (centres unmarked) | 4.31
49 | O=C(O)/C=C\C(=O)Nc1ccc(Br)cc1C(=O)O | 1.66
50 | Cc1ccc(-c2nc(CS(=O)CC(=O)NC3CCCC3)c(C)o2)cc1 (centres unmarked) | 0.689
51 | O=C1C=C(NCc2ccc(Cl)cc2)CC(c2ccco2)C1 (centres unmarked) | -4.48
52 | Nc1[nH]nc(-c2ccccc2)c1-c1ccccc1 | 3.9

Row | SMILES | % Inhibition @ 10 uM [%]
53 | CCCN(CCC)c1ncnc2c1cnn2C | 1.42
54 | CC(C)CCNC(=O)c1c(O)nc2c(c1O)CCCC2 | 2.8
55 | Cc1ccc(CNC(=O)Cn2ccc3cc(S(=O)(=O)N4CCCC4)ccc32)cc1 | -3.12
56 | COCc1[nH]nc2c1C(c1c[nH]c3ccccc13)C(C#N)=C(N)O2 (centres unmarked) | -0.994
57 | CC1CN(c2ccc([N+](=O)[O-])c(NCc3ccccc3)c2)CCN1 (centres unmarked) | -0.711
58 | Cc1cccc2c1-c1sc(C(=O)N(CCN(C)C)Cc3ccco3)cc1CO2 | 0.291
59 | CCOC(=O)c1ccc(Oc2coc3cc(OC)ccc3c2=O)cc1 | 3.93
60 | COc1ccc(CC(=O)Nc2c3c(nc4c2CCC4)CCCC3)cc1OC | 9.01
61 | O=C(Nc1ccc2c(c1)OCO2)C12CC3CC(CC(C3)C1)C2 | 1.15
62 | CCCC1CCc2c(sc(NC(=O)C3CC=CCC3C(=O)O)c2C(N)=O)C1 (centres unmarked) | 2.43
63 | CN1CCN(c2ccc(C=C3C(=O)N(C)C(=O)N(C)C3=O)o2)CC1 | -5.28
64 | CN1C(N)=NC(=O)/C1=C/c1cc2c(cc1Cl)OCO2 | 1.27
65 | Cc1cc(C(F)F)nn1CC(=O)N1CCc2ccccc21 | 9.65
66 | COc1cccc(C(=O)c2cc3cccc(OC)c3o2)c1 | -7.3
67 | Cc1ccc2oc(=O)c3cnn(CC(=O)NCCc4ccc(Cl)cc4)c3c2c1 | 4.74
68 | COc1ccc(-c2cc(C(=O)NCCc3ccc(OC)c(OC)c3)no2)cc1 | -4.79
69 | Cc1cc(C)cc(OCC(=O)Nc2ccc(C#N)cc2)c1 | -3.75
70 | Cc1cc(C)c(NC(=O)C2CC(=O)N(c3ccc(Cl)cc3)C2)c(C)c1 (centres unmarked) | 0.431
71 | COc1ccc(Cl)cc1CC(=O)O | -0.403
72 | CN(CC(=O)Nc1ccc(Br)cc1F)S(=O)(=O)c1cc(Cl)ccc1Cl | 1.18
73 | Cc1sc(NC(=O)CSc2nc3ccccc3s2)c(C#N)c1C | 4.65
74 | COc1cc(/C=C2/SC(=O)N(C(C)C)C2=O)cc(Br)c1OCC(=O)O | 3.91
75 | O=C(NCc1cccnc1)C1CCCCN1S(=O)(=O)c1ccc(F)cc1 (centres unmarked) | -0.972
76 | CCOC(=O)C(C#N)c1nc2ccccc2nc1N1CCOCC1 (centres unmarked) | 4.44
77 | CS(=O)(=O)C1=NSC2=NC(=O)/C(=C\c3cccc4ccccc34)C(=N)N21 | -3.39
78 | COc1ccccc1N(CC(=O)NC1CC1)S(=O)(=O)c1ccccc1 | -2.03

Row | SMILES | % Inhibition @ 10 uM [%]
79 | O=C(Cc1ccccc1)NCc1nc2ccccc2n1Cc1ccccc1 | -0.551
80 | COc1ccc(/C=C(\NC(C)=O)C(=O)N2CCNCC2)cc1 | -0.988
81 | CCOC(=O)c1ccccc1C(=O)c1ccccc1 | -3.04
82 | CC1=C(C(=O)Nc2ccc(F)cc2)C(c2ccncc2)n2ncnc2N1 (centres unmarked) | 3.26
83 | CC1SC(c2ccccc2)N(CCc2ccccc2)C1=O (centres unmarked) | -4.21
84 | O=C(CN1CCOCC1)c1c[nH]c2ccccc12 | 7.5
85 | CC(C)CCC1(CCc2ccncc2)C(=O)NC(=O)NC1=O | -0.992
86 | CC1CC(C)CN(CCCNC(=O)C2CCN(S(C)(=O)=O)CC2)C1 (centres unmarked) | -1.34
87 | O=C1CC2(CCCCCC2)Oc2ccc(O)cc21 | 4.79
88 | CCOC(=O)C1CCCN(C2CCN(Cc3ccccc3)CC2)C1 (centres unmarked) | 0.162
89 | CCCc1nn2cc(-c3ccc(Br)cc3)nc2s1 | 0.758
90 | COc1ccc(C(=O)C2=C(O)C(=O)N(CCCN(C)C)C2c2ccc(Cl)cc2)c(C)c1 (centres unmarked) | -1.61
91 | CCOc1cc(Br)cc(/C=C2\S/C(=N/c3cccc(C(=O)O)c3)N(C)C2=O)c1O | 6.97
92 | Cc1ccccc1CSc1nc2nccnc2c(=O)n1Cc1ccc2c(c1)OCO2 | -0.696
93 | COc1ccc(OC)c(C2CC(=O)N=C(NC(=O)c3cccnc3)N2)c1 (centres unmarked) | 7.15
94 | Cc1c(C(=O)N2CCN(c3ccccn3)CC2)sc2nc3n(c(=O)c12)CCCCC3 | -1.08
95 | OCC1(CO)C2C3C4CC5C6C4C2C6C1C53 (centres unmarked) | -5.28
96 | Cc1cccc(C)c1NC(=O)CN1CCOCC1 | 0.00784
97 | C=CCOc1ccc(C2c3c(oc4ccccc4c3=O)C(=O)N2c2nc(C)c(C(=O)OC)s2)cc1 (centres unmarked) | 3.12
98 | O=C(c1cc(C2CC2)nc2ccccc12)N1N=C(C(F)F)CC1(O)C(F)F (centres unmarked) | 0.389
99 | CCCS(=O)(=O)N1CCC(C(=O)NC2CCCC2)CC1 | 1.62
100 | CCOc1ccccc1N1CCN(Cc2ccccc2OC)CC1 | -3.71
101 | Cc1ccccc1NC(=O)c1ccc2c(c1)CCN2S(C)(=O)=O | -3.25
102 | CC(C)CCOCC(O)Cn1c2ccccc2c2ccccc21 (centres unmarked) | -1.25
103 | CCC(O)c1nc2ccccc2n1Cc1c(F)cccc1Cl (centres unmarked) | 2.05
104 | CCOC(=O)c1c(S(=O)(=O)NCc2ccco2)c(C)n(C)c1C | 0.184

— publication PMC6919601, “Identification of Plasmodium dipeptidyl aminopeptidase allosteric inhibitors by high throughput screening” (PLoS ONE, 2019)
